Results from article PMC4336329 (PLoS ONE, 2015).
About 2,200 (0.71%) of roughly 310,000 compounds showed an effect of 50% or more. Effects have a minus sign here. This is one part of the list.

molecular target: human ether-à-go-go-related gene (hERG) potassium channel (human, UniProt Q12809); test: primary screen, population patch clamp on CHO cells stably expressing hERG
Sequence (Q12809 whole entry, looked up): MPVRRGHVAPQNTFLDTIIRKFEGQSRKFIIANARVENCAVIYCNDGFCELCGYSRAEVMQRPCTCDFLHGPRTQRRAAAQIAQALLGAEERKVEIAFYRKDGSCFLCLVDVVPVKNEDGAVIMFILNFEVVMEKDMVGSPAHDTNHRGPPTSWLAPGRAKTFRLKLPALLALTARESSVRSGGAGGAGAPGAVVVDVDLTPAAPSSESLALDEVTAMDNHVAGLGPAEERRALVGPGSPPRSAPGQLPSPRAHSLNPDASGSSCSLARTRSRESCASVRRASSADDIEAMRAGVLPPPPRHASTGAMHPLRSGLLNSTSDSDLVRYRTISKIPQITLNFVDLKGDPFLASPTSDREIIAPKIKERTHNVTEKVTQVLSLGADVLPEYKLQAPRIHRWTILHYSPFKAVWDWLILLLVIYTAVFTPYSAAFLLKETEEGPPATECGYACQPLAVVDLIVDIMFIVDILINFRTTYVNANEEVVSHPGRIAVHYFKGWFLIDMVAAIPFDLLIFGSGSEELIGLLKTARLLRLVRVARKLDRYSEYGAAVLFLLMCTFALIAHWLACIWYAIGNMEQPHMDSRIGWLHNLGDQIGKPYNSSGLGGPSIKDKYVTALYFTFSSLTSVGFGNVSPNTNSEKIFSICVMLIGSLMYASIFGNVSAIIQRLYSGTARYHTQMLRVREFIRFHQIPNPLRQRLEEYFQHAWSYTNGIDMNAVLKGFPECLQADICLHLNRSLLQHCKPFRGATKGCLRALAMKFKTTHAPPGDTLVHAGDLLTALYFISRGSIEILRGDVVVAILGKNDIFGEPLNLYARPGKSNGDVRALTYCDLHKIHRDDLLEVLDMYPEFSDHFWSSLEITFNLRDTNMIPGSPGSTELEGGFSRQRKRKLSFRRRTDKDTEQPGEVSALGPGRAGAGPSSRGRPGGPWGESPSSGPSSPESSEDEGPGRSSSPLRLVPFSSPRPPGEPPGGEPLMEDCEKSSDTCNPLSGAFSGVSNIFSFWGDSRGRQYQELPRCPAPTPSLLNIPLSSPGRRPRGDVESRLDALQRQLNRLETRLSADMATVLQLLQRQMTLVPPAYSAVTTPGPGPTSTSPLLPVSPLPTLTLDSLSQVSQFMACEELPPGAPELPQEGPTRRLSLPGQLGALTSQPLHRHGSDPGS

First: Cc1ccc(-c2c(C)n([O-])c3c([n+]2=O)CCC3)o1
Second: CC(=O)COc1ccc2c3c(c(=O)oc2c1C)CCCCC3
The “hERG current change (%, negative = inhibition) at 1uM” value of the first is higher: 16.5% for the first, -3.73% for the second.

Compared with `Cc1sc2nc(SCC(=O)c3cccs3)n(Cc3ccco3)c(=O)c2c1C`, `Cn1c(SCC(=O)NCc2ccc3c(c2)OCO3)nc2scc(-c3cccs3)c2c1=O` is higher in “hERG current change (%, negative = inhibition) at 1uM” value: -4.53% for the first, 9.47% for the second.

First: CCSc1nc2ccccc2c(=O)n1CCc1ccc(OC)c(OC)c1
Second: CCCCCn1c(=O)c(Cc2ccccc2)c(O)c2ccccc21
The “hERG current change (%, negative = inhibition) at 1uM” value of the first is higher: 16.5% for the first, -5.8% for the second.

Going from `CCOC(=O)N1CCN(C(=O)c2ccc(NS(=O)(=O)c3ccc4[nH]c(=O)[nH]c4c3)cc2)CC1` to `COc1ccc(NS(=O)(=O)c2cccc(NC(=O)c3ccc(S(=O)(=O)N4CCCCCC4)cc3)c2)cc1`, the “hERG current change (%, negative = inhibition) at 1uM” value rises from 0.0867% to 2.48%.

First: COc1ccc(NC(=O)CSc2nc3nc(-c4cccs4)cc(C(F)(F)F)c3c(=O)[nH]2)c(OC)c1
Second: O=c1[nH]c(SCc2nc3ccccc3c(=O)n2-c2ccccc2)nc2ccccc12
The “hERG current change (%, negative = inhibition) at 1uM” value of the first is lower: -1.97% for the first, 0.0594% for the second.

Compared with `Cc1cc(C(C)C)n2c(nc3ccccc32)c1C#N`, `Cc1cc(Cl)c2cc3ccccc3cc2n1` is higher in “hERG current change (%, negative = inhibition) at 1uM” value: -6.89% for the first, 10.5% for the second.

Going from `CC/C(C)=N/N1C(=O)c2ccccc2NC1(C)CC` (stereo not drawn) to `O=C1OCC/C1=C\c1ccccc1O`, the “hERG current change (%, negative = inhibition) at 1uM” value rises from 6.09% to 8.27%.

Compared with `CCOc1ccc(N2CC(C(=O)NCCN3C(=O)S/C(=C\c4cccnc4)C3=O)CC2=O)cc1` (stereo not drawn), `CCCn1c(N)c(N(CCOC)C(=O)c2ccc(-c3ccccc3)cc2)c(=O)[nH]c1=O` is lower in “hERG current change (%, negative = inhibition) at 1uM” value: 16.3% for the first, 10.1% for the second.

Going from `Cc1ccc(C(=O)N2CCCC(C(F)(F)F)C2)cc1S(=O)(=O)N1CCCCC1` (stereo not drawn) to `COc1cc2c(cc1OC)CN(C(=O)c1cc(S(=O)(=O)N3CCOCC3)ccc1Cl)CC2`, the “hERG current change (%, negative = inhibition) at 1uM” value falls from 2.4% to -0.583%.

Compared with `Cc1cccc(C)c1N1CCN(S(=O)(=O)c2ccc(F)cc2)CC1`, `O=C(c1ccco1)N1CCN(C(=O)C2(S(=O)(=O)c3ccc(Cl)cc3)CC2)CC1` is lower in “hERG current change (%, negative = inhibition) at 1uM” value: 9.27% for the first, -12.8% for the second.

Going from `O=C(CSc1nc2cc(C(F)(F)F)ccc2n1Cc1ccccc1)NC1CCS(=O)(=O)C1` (stereo not drawn) to `Cc1cc(NC(=O)C2CCN(S(=O)(=O)Cc3ccccc3)CC2)ccc1-n1cnnn1`, the “hERG current change (%, negative = inhibition) at 1uM” value rises from -0.191% to 2.92%.

First: COc1ccc(C)cc1NS(=O)(=O)c1ccc2c(c1)oc(=O)n2C
Second: COc1ccc(NS(=O)(=O)c2cc(C)ccc2OC)cc1OC
The “hERG current change (%, negative = inhibition) at 1uM” value of the first is higher: 14.5% for the first, 9.26% for the second.

Compared with `COc1ccccc1NC(=O)c1ccc(COc2ccc3c(c2)CCC3)cc1`, `COc1ccc(NC(=O)C(NC(C)=O)C(=O)NCc2ccc(F)cc2)cc1` (stereo not drawn) is higher in “hERG current change (%, negative = inhibition) at 1uM” value: 7.43% for the first, 7.52% for the second.

First: Clc1ccc2nc(CSc3ccccc3)cn2c1
Second: O=[N+]([O-])c1cccc(-c2n[nH]c(=S)n2-c2ccccc2)c1
The “hERG current change (%, negative = inhibition) at 1uM” value of the first is lower: 9.26% for the first, 15.8% for the second.

Going from `O=C(Nc1cccnc1)Nc1ccccn1` to `O=C(N/N=C/c1ccccn1)c1cccc([N+](=O)[O-])c1`, the “hERG current change (%, negative = inhibition) at 1uM” value rises from 8.59% to 9.34%.

Compared with `COc1cc(C(=O)NC(=S)Nc2ccc(NC(=O)c3ccco3)cc2)cc(OC)c1OC`, `COc1cc(-c2nnc(SCC(=O)/C(C#N)=C(\C)N)o2)cc(OC)c1OC` is higher in “hERG current change (%, negative = inhibition) at 1uM” value: 2.75% for the first, 5.43% for the second.

First: Cc1cc(C)n(CCCNC(=O)c2ccc3c(c2)NC(=O)CS3)n1
Second: Cc1cc(C)c(-c2csc(NC(=O)COC(=O)c3ccc4c(c3)OCO4)n2)c(C)c1
The “hERG current change (%, negative = inhibition) at 1uM” value of the first is higher: 16.7% for the first, -1.36% for the second.

Going from `CC1Cc2ccccc2N1Cc1ccc([N+](=O)[O-])cc1` (stereo not drawn) to `O=C(CNC(=O)C1COc2ccccc2O1)N/N=C/c1ccc([N+](=O)[O-])cc1` (stereo not drawn), the “hERG current change (%, negative = inhibition) at 1uM” value falls from 17.6% to -40%.

Compared with `Cc1ccc(NC(=O)CCC(=O)N/N=C/c2cc([N+](=O)[O-])ccc2O)cc1`, `O=C(/C=C/c1ccc([N+](=O)[O-])cc1)Oc1ccc(/C=N/NC(=O)c2ccncc2)cc1` is higher in “hERG current change (%, negative = inhibition) at 1uM” value: 7.56% for the first, 12.9% for the second.

Compared with `CCOc1c(Br)cc(/C=C(\C#N)C(=O)NC2CC2)cc1OC`, `CC(NC(=O)/C(C#N)=C/c1cccs1)c1ccccc1` (stereo not drawn) is higher in “hERG current change (%, negative = inhibition) at 1uM” value: 5.92% for the first, 34.7% for the second.

Going from `CC(C)N(CCc1ccncc1)C(=O)Nc1ccc(F)cc1` to `CSc1cccc(NC(=S)N(CCCN2CCC(C)CC2)Cc2cccs2)c1`, the “hERG current change (%, negative = inhibition) at 1uM” value falls from 11.4% to -11.3%.

First: CC(=O)N1CCN(CC(=O)Nc2ccc3c(c2)CCC3)CC1
Second: CCCCCCCNC(=O)C1(CC2CC(c3ccc(Cl)cc3)=NO2)CCN(C(=O)C2(C)CC2)CC1 (stereo not drawn)
The “hERG current change (%, negative = inhibition) at 1uM” value of the first is higher: 11.1% for the first, -21.1% for the second.

Going from `c1ccn2c(CNc3ncnc4sccc34)nnc2c1` to `CC(C)CCNc1ncnc2c1nnn2Cc1ccccc1`, the “hERG current change (%, negative = inhibition) at 1uM” value falls from 13.1% to 7.52%.

Going from `CC(=Nc1cccc(C)c1)c1sc2ccccc2c1O` to `Cc1cc(N/N=C/c2ccccc2F)nc(NCc2ccccc2)n1`, the “hERG current change (%, negative = inhibition) at 1uM” value rises from 4.32% to 10.6%.

Compared with `Cc1nn(-c2ccccc2)nc1C(N)=O`, `CC(=O)c1cnc2c(-c3ccc(Cl)cc3)c(C)nn2c1C` is lower in “hERG current change (%, negative = inhibition) at 1uM” value: 16.5% for the first, 4.09% for the second.

First: N#Cc1ccc(C(=O)NCC(c2ccco2)N2CCCC2)cc1 (stereo not drawn)
Second: O=C(CNC(=O)c1ccccc1)NCC1COc2ccccc2O1 (stereo not drawn)
The “hERG current change (%, negative = inhibition) at 1uM” value of the first is higher: 4.01% for the first, 1.02% for the second.

Going from `Cc1oc(C2CC2)cc1C(=O)O` to `O=C1NCCN1Cc1ccc(Cl)cc1`, the “hERG current change (%, negative = inhibition) at 1uM” value rises from -0.675% to 14.4%.

First: O=C(O)C1C2C=CC(O2)C1C(=O)NCCCn1ccnc1 (stereo not drawn)
Second: CCCCn1c(CCc2ccccc2)nc2cc3[nH]c(=O)c(C(C)C)nc3cc21
The “hERG current change (%, negative = inhibition) at 1uM” value of the first is higher: 8.76% for the first, 6.7% for the second.

With `NC(=S)NNc1ccc(Cl)c(Cl)c1` the “hERG current change (%, negative = inhibition) at 1uM” value was 13.9%.
